According to the RNAGym collection of RNA variant scans (doi:10.7554/elife.90254):
Read counts are not given, so values of variants with three or more changes are uncertain.

B1: LINE1-mini (parent)
chain: GGCAGAGCUCAACACAGCGUGGCAAAGUGGCUGUGGCUAGACUGCC

Variants of: B1
Test: self-cleavage, relative activity (ratio to wild type); higher = more cleavage; in vitro, sequencing; the parent is a self-cleaving ribozyme
With G7C G29U G33C the self-cleavage was 0.09. Variant A16C G17C G22C G27C G29C U38G has a self-cleavage of 0.02. Work on A6U C8U U9A U43C yielded a self-cleavage of 0.02. A6U A14U A24G G29U G33C showed a self-cleavage of 0.03. Variant C10U A11U G17A U28A G33U C42U has a self-cleavage of 0.01. Variant G2C G33U U34A C42A has a self-cleavage of 0.01. With A4C A14C G22C G30C G35A C37G the self-cleavage was 0.1. With G1A A4G A26C the self-cleavage was 0.08. For G5C C8U C31U, the self-cleavage was 0. For G27A G33C G40C, the self-cleavage was 0.05. For G5C A6U G21C C23A C42U, the self-cleavage was 0.72. G7U G21C C31G G36A showed a self-cleavage of 0.2. A4C U20C G30A A41U gave a self-cleavage of 0.01. A4C C8G G40U showed a self-cleavage of 0.1. Work on A12G C23A G27U yielded a self-cleavage of 0.01. Work on G5A C8U G19C A26U yielded a self-cleavage of 0.09. Variant C8G U9A G21C A24C U32G has a self-cleavage of 0.11. With A24G A26U G29A C37U the self-cleavage was 0.04. Variant G19C A24C C45G has a self-cleavage of 0. Variant G1A A6C G22U U34G has a self-cleavage of 1.27. Work on C13G C23G G29C yielded a self-cleavage of 0.35. Work on C13U A24C C46G yielded a self-cleavage of 0.02. With U9G A24U A26G G40A the self-cleavage was 0.02. For A25U G30A G35C G44U, the self-cleavage was 0.01. With G1A A24C A39U the self-cleavage was 0.04. Variant A14C G17U C45A has a self-cleavage of 0.08. Variant G1A A12U C13A C18A A26U A41C has a self-cleavage of 0.06. In the case of G1U G5U A11U A14C C31G, the self-cleavage is reported as 0.01. Variant C3A A6C C10A U38A has a self-cleavage of 0.04. In the case of G1U A6U C10G A12U A14U G35C C37A, the self-cleavage is reported as 0. In the case of C3U A12U C18G A25U G27C G36U U38G, the self-cleavage is reported as 0.01. Work on G1A C3U G22U C23A A24C C31G yielded a self-cleavage of 0.79. C3U C13U C15A A41G C46U showed a self-cleavage of 0.02. Variant A6C U9G A16C has a self-cleavage of 0.01. In the case of C8A G22C C45A, the self-cleavage is reported as 0.07. For A6C A16U A26C U28G U32C, the self-cleavage was 0.01. Work on A6C A26U G27C C42G yielded a self-cleavage of 0.06. G17U U20C C42G showed a self-cleavage of 0.04. Variant C3A G7C C10G A11G A41C has a self-cleavage of 0.02. With C3U A14U G30A G33C the self-cleavage was 0.07. G2A U20C G21C G44C showed a self-cleavage of 0.14. For G1A U20G C23G G44C, the self-cleavage was 0.05. Variant C18G G22C G40U has a self-cleavage of 0.04. With G21U G27A C37U the self-cleavage was 0.04. For G2C A4U G5C C13U U28A G36U C46U, the self-cleavage was 0.02. In the case of C3G G27C C31A G40U, the self-cleavage is reported as 0.05. Work on G21A G30U U34A C42U yielded a self-cleavage of 0.03. A6U C8A A24G C42A showed a self-cleavage of 0.29. In the case of G2C C3A C37A A41G, the self-cleavage is reported as 0.07. In the case of G17C G21A G36A C42G, the self-cleavage is reported as 0.07. Variant C3U G40C G44A C45A has a self-cleavage of 0.02. C15A G17A G19C U34G G36U C37A U38A gave a self-cleavage of 0.02. G1A G22C C23A showed a self-cleavage of 2.31. C8G G21U G40U A41C gave a self-cleavage of 0.1. Variant A4G A6C C13G C18U A25G A26G U34G has a self-cleavage of 0.02. A12C G29U G35U C45A showed a self-cleavage of 0.02. In the case of C15A G27C A39U G40C A41U, the self-cleavage is reported as 0.09. A6G A14U C37U gave a self-cleavage of 0.01. G2C A14U C31G U38G showed a self-cleavage of 0.09. With C3U G33U U34C A41C the self-cleavage was 0.07. Variant G1C A6G U9G C10A has a self-cleavage of 0.02. For G5C G17A A24C C46A, the self-cleavage was 0.04. Variant G17U G21U A24C has a self-cleavage of 1.44. A6U C10U U43C showed a self-cleavage of 0.07. G5C G35U C46U showed a self-cleavage of 0.02. With A12C C18A G21A G29U A41C the self-cleavage was 0.01. Work on A6U G21A C46G yielded a self-cleavage of 1.45. G5C C31A U43G showed a self-cleavage of 0.07. Variant C3G C13G G27U has a self-cleavage of 0.45. Variant G1C A12C A16G G40U G44A has a self-cleavage of 0.01. For G21A G30U G40U C42A, the self-cleavage was 0.03. In the case of A4C G17C G30C C31G, the self-cleavage is reported as 0.02. In the case of G2C U38C C46A, the self-cleavage is reported as 0.04. Variant C3A G30A U43A has a self-cleavage of 0.06. Work on G30A G35A A39G yielded a self-cleavage of 0.03. In the case of C8G U28A G40U, the self-cleavage is reported as 0.05. A4U C10G C18A A24G A26C G35A showed a self-cleavage of 0.02. A6G A11C A16C C45A showed a self-cleavage of 0.01. For G1U A4C A14U G21U G30A, the self-cleavage was 0.01. With G2A C3G U20C U32A G33U the self-cleavage was 0.17. G1U U9G A11U A24C G27A G36A gave a self-cleavage of 0. With G2A A4G C15A C31G G36A G40U the self-cleavage was 0.07. Work on G5A C18U A25C yielded a self-cleavage of 0.17. For C3U A4U C23A A26U, the self-cleavage was 0.16. In the case of A6U C8U G30U G36C C37A U43A, the self-cleavage is reported as 0.51. For G7C C10U C15U G19U, the self-cleavage was 0.04. Work on A6G C42U C46U yielded a self-cleavage of 0.05. With A14U C31A U38A the self-cleavage was 0.08. With C13U A24G U38A C42G C45A the self-cleavage was 0. For C13A C15U C23A U34G, the self-cleavage was 0.01. For A16G C31U A39G, the self-cleavage was 0.03. C10U G30U G44U showed a self-cleavage of 0.26. In the case of G5A U9G A26C, the self-cleavage is reported as 0.09. With U9G A14U C37G the self-cleavage was 0.24. For G1C G7U C13A C31G G35A, the self-cleavage was 0.05. G1A A16C G17A gave a self-cleavage of 0.14. In the case of G5A G36U G44A, the self-cleavage is reported as 0.09. For G1A G2C G33U A39U, the self-cleavage was 0.07. For G29C U34A G36U C46U, the self-cleavage was 0.01. Work on C10A G30C G36C G40U C45G yielded a self-cleavage of 0.02. G5A C10G U34G showed a self-cleavage of 0.02. G2A C8U A11G A14U G19U G21U C42A C45A C46G showed a self-cleavage of 0.01. Variant A4C G22U G44C has a self-cleavage of 0.06. U9A C31G U38G C45U gave a self-cleavage of 0. In the case of G1C A11G A41U, the self-cleavage is reported as 0. C18A U38G A41C C45A showed a self-cleavage of 0.04. G5C C15G G19C showed a self-cleavage of 0.04. Variant G7A C15A U32A has a self-cleavage of 0.09. Variant G17U A24C A41C C42U has a self-cleavage of 0.01. Variant A12G G17A G40A has a self-cleavage of 0.02. U9G C15G A26U gave a self-cleavage of 0.01. In the case of G1A U20C U28C G30A, the self-cleavage is reported as 0.13. With G2U G7A C13G C45U the self-cleavage was 0.02. A4U A6G G36U gave a self-cleavage of 0.07. With A24U A26C A41G the self-cleavage was 0.32. U9C G22A G29U gave a self-cleavage of 0.01. In the case of U9A C10A U34A A39G, the self-cleavage is reported as 0.01. G2U C13A G21A U38G showed a self-cleavage of 0.01. With G7C G19C G30A A41U the self-cleavage was 0.13. Work on G2C C15A A24C G29U yielded a self-cleavage of 0.03. For G1C C3U C8A, the self-cleavage was 0.25. With A4C A6G C8A A41C C46A the self-cleavage was 0.16. U9A C15A A24G G33U C42G gave a self-cleavage of 0.22. For C8A G33A G35C, the self-cleavage was 0.03. With A6U G17U A41C the self-cleavage was 0.13. Work on G5A G7C G30A C42G yielded a self-cleavage of 0.08. G1C C13A G30U gave a self-cleavage of 0. Variant G1U A12C U28G has a self-cleavage of 0. A4C A16G U28A C31U showed a self-cleavage of 0.02. Work on C18A G30A C31A yielded a self-cleavage of 0.04. In the case of G2A C10U C23U, the self-cleavage is reported as 0.6. With A6U G30C C31U the self-cleavage was 1.29. Variant G2A G5U G44A has a self-cleavage of 0.13. For A12U C37G G44C, the self-cleavage was 0. A4U C13A C15U C18U G44U showed a self-cleavage of 0.04. G5A C13A C15A G33C C42U U43C gave a self-cleavage of 0.03. In the case of C23G G27A U32G C37U, the self-cleavage is reported as 0.03. A4C C10G U32A showed a self-cleavage of 0.02. C3U G5U A11C showed a self-cleavage of 0.06. For C18A C31A U34C G40C, the self-cleavage was 0.01. Variant G1C G21U C23A C31G has a self-cleavage of 0.02. In the case of C3A A24C G44U, the self-cleavage is reported as 1.92. With G1C G2A G7C G29U the self-cleavage was 0.07. With A4G C31G C45U the self-cleavage was 0.15. With C10G U20A A24G G36U A39U the self-cleavage was 0.02. Variant G1C G5C G29U has a self-cleavage of 0.03. Work on C3A C13A G30C C46A yielded a self-cleavage of 0.44. A16C C31A U32G showed a self-cleavage of 0.09. With G17C U43C C45U the self-cleavage was 0. In the case of G1C C3G C10A A26U G29A, the self-cleavage is reported as 0.02. Work on G2U U20G U32C yielded a self-cleavage of 0. For C3G A16C U28A G33A U34G U38G, the self-cleavage was 0.05. In the case of G2U C13U A24C G30U, the self-cleavage is reported as 0.05. Variant G17A G19U A24G G35A U38A has a self-cleavage of 0.06. U9A A11C C37A U38C gave a self-cleavage of 0.01. In the case of G7C C13A G19A A39C, the self-cleavage is reported as 0.02. C13G C15A G22U A24U A41C gave a self-cleavage of 0.16. G7A C10U A16G showed a self-cleavage of 0.17. For G5U G36A C45A, the self-cleavage was 0. Work on A11U A16G C18G yielded a self-cleavage of 0. For G33C U34A A39U, the self-cleavage was 0.03. For C23U G29U C42A C46U, the self-cleavage was 0.16. With A12C C31A G36C the self-cleavage was 0. Variant C3A C8U U9C C15A has a self-cleavage of 0.18. Variant C3A C15U G30A has a self-cleavage of 0.32. U9G C18A G21C G33C U43G showed a self-cleavage of 0.27. For C3G A16C C23A C31U G40C, the self-cleavage was 0.
